From article PMC7819943, “Rice protein-binding microarrays: a tool to detect cis-acting elements near promoter regions in rice”
The list shows a part of the results.

These sequences were tested against T1, OsWOX13 (Oryza sativa, UniProt Q5QMM3 1-267) (assay: protein-binding microarray (RPBM); PBS, 2% BSA, 51.3 ng/ul salmon testes DNA, 50 uM zinc acetate, 200 nM TF, 25 C, 1 h; high values mean tight binding). Conditions: protein: recombinant; tags: N-terminal polyhistidine and DsRed monomer fusion (pET32a); label: CyDye5-dUTP incorporated in the synthesized complementary strand; 3' TTTTT single-stranded linker to array surface; dsDNA, one strand shown.
T1 sequence: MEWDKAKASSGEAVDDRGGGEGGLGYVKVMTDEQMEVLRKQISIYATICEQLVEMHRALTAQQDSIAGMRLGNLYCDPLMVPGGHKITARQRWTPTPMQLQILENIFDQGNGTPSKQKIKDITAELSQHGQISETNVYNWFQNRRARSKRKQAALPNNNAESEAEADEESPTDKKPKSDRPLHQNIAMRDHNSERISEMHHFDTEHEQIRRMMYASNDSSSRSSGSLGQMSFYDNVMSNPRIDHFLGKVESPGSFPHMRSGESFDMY
Summary of the method: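 Binding signal here means per-feature fluorescence intensity in arbitrary units. The values were read on an Axon 4000B scanner after a custom Agilent array, double-stranded by primer extension with Cy5-dUTP, was incubated with 200 nM protein at 25 °C for 1 h in PBS with 2% BSA, salmon testes DNA and 50 µM zinc acetate, then washed. The proteins were transcription factors with an N-terminal polyhistidine tag and DsRed, expressed in E. coli BL21-CodonPlus and purified on Ni–NTA.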

Row | Sequence | binding signal
1 | GAGCAAAATTAAAATATTTTCTACAATTATATATACATAGCGGAGTCACCTAGTGCAG | 3390 fluorescence intensity (a.u.)
2 | GATAACTGGTAAGCAAGCAAGCTCTTCACAATCATATGGCCGGAGTCACCTAGTGCAG | 10800 fluorescence intensity (a.u.)
3 | ATGGATTTAGATTGGCGTGCGTCTCTTAACCGCACGAATGCGGAGTCACCTAGTGCAG | 20800 fluorescence intensity (a.u.)
4 | TTTCGTAATTATAATTAGGCAGTACAAGTACTTAACAAGACGGAGTCACCTAGTGCAG | 35500 fluorescence intensity (a.u.)
5 | CCGTCTGTCATGAATGATAGAAATGTTATGAGTACGATGACGGAGTCACCTAGTGCAG | 3400 fluorescence intensity (a.u.)
6 | TGGTGATTTTACCCCTAACAGACTGGGACACTACTGTTTCCGGAGTCACCTAGTGCAG | 13700 fluorescence intensity (a.u.)
7 | GTATTTATTTCAATTAAAATCTTTATTTATAACAACATCTCGGAGTCACCTAGTGCAG | 3470 fluorescence intensity (a.u.)
8 | TTTGTTGATTTGTGTGTATGAATTATGATGGGCCCATGACCGGAGTCACCTAGTGCAG | 29400 fluorescence intensity (a.u.)
9 | TTGATTGATGGGAGTCTAACAAAGTGACAAAACTTAGCAACGGAGTCACCTAGTGCAG | 53900 fluorescence intensity (a.u.)
10 | ATCTTAATTTTATTGATAGAGAGAGATTTACGGATGTGTGCGGAGTCACCTAGTGCAG | 52200 fluorescence intensity (a.u.)
11 | TTAATTAGACTTAACAAATTCGTCTCACAATTTAAGGGCGCGGAGTCACCTAGTGCAG | 26500 fluorescence intensity (a.u.)
12 | AGTAAATGTCAATCATATCTACTTTCTCAGGTCTACAGAGCGGAGTCACCTAGTGCAG | 38000 fluorescence intensity (a.u.)
13 | GGTAGTAAATGATTTTAAATGGAAAATTGTGAGCAACAGGCGGAGTCACCTAGTGCAG | 19400 fluorescence intensity (a.u.)
14 | GTAGTAACTTGTAAATAGATGAGAATCTAATAAACAAGTTCGGAGTCACCTAGTGCAG | 4330 fluorescence intensity (a.u.)
15 | TTGACAATATTTGATAGGTTGTCCAATGGTATCGATTATTCGGAGTCACCTAGTGCAG | 9460 fluorescence intensity (a.u.)
16 | CTCTGTTCTAAAATAATTAGCGTTCTAGATTATTTAGGAACGGAGTCACCTAGTGCAG | 7270 fluorescence intensity (a.u.)
17 | CTTAATTAATCACGTGTTAACCTATCGCTCCATTTTCCGACGGAGTCACCTAGTGCAG | 52200 fluorescence intensity (a.u.)
18 | ATAATTGCACTAGATTATACTGTAATTACATATGTCAAATCGGAGTCACCTAGTGCAG | 27300 fluorescence intensity (a.u.)
19 | ATGGAAACATGATTGCACAGAGCGTGTTTACTACTCTTATCGGAGTCACCTAGTGCAG | 16200 fluorescence intensity (a.u.)
20 | TTTAAGTCGTATAATTAACCTTTTGTAATTTTGAGTGAGACGGAGTCACCTAGTGCAG | 3910 fluorescence intensity (a.u.)
21 | ATATTTTATGATAAATTAATTATCCAAGGTTATAAATGATCGGAGTCACCTAGTGCAG | 13300 fluorescence intensity (a.u.)

Row | Sequence | binding signal
22 | AATTAATCCATGATTAGCCATAAGTGCTACAGTAACTTACCGGAGTCACCTAGTGCAG | 12800 fluorescence intensity (a.u.)
23 | AATTTAATTAATTATGACTTCAGCTTGGTAGGTTCAGTTGCGGAGTCACCTAGTGCAG | 53000 fluorescence intensity (a.u.)
24 | CAAGCGACGGTAATTACGGTGGTATTTGTGATATTTCTATCGGAGTCACCTAGTGCAG | 3480 fluorescence intensity (a.u.)
25 | GAAAATTGACATAAGGCTTTGTCTTTTGTATGCAACACTTCGGAGTCACCTAGTGCAG | 49500 fluorescence intensity (a.u.)
26 | AAATCTGTAATTTGTTTTATTATTAATATATGTTTAATACCGGAGTCACCTAGTGCAG | 7820 fluorescence intensity (a.u.)
27 | CTCCAATTTATTTATAGTCGATCTAACAGCTAATTCGTTTCGGAGTCACCTAGTGCAG | 7110 fluorescence intensity (a.u.)
28 | CTAATAAACTGTCATGGCTTATAATCAGTTCAGAGCAACCCGGAGTCACCTAGTGCAG | 9930 fluorescence intensity (a.u.)
29 | TGCAATCAACAATTAATGGGATGGCCGACCGGTGTGGTTGCGGAGTCACCTAGTGCAG | 21300 fluorescence intensity (a.u.)
30 | CGTGATGATTAGACAAGCTTAAAATTACCCTATTTGACGTCGGAGTCACCTAGTGCAG | 26500 fluorescence intensity (a.u.)
31 | TCTCTCCATTTACTTTTGATAACCATATTTTATTTTGACACGGAGTCACCTAGTGCAG | 3510 fluorescence intensity (a.u.)
32 | AATAAATACTCTAATTGCTAGCAACCAACGTCCCAACCCACGGAGTCACCTAGTGCAG | 9560 fluorescence intensity (a.u.)
33 | TCAATCAATCCAATCCATCCCACACACCGCCCATCTCCCTCGGAGTCACCTAGTGCAG | 9950 fluorescence intensity (a.u.)
34 | TATGATAATTTGTTTAATAATAAATCTAATAACACCAATTCGGAGTCACCTAGTGCAG | 21800 fluorescence intensity (a.u.)
35 | TTTATGTGTTAATTATGCACCATATTATTTGCGGTGAATACGGAGTCACCTAGTGCAG | 11700 fluorescence intensity (a.u.)
36 | TAAATGTAATCACCGAATTAGCTGTCCATTAATAAACTTCCGGAGTCACCTAGTGCAG | 4500 fluorescence intensity (a.u.)
37 | CAGAAAACTGGAAAGTAATAATATAACTGGGGATGTTTCTCGGAGTCACCTAGTGCAG | 6200 fluorescence intensity (a.u.)
38 | CCTTCCGTTTCCGTTCCGTTCCATTTCCCGTTCACACCCTCGGAGTCACCTAGTGCAG | 4500 fluorescence intensity (a.u.)
39 | CAATAATAATGGTAAACAAATTTAGTCAAAGTTAAATAGTCGGAGTCACCTAGTGCAG | 7710 fluorescence intensity (a.u.)
40 | GCCCTCTCCAATCACTGCCATGCCGCGCGTGTGCCTTCCGCGGAGTCACCTAGTGCAG | 13200 fluorescence intensity (a.u.)
41 | TTACACTAATATATTCCATCAACACGTTGTAACTACTCCCCGGAGTCACCTAGTGCAG | 3160 fluorescence intensity (a.u.)
42 | TTCACGCTTGATTGGGCTGGGATTAAGGCCCATTTATACACGGAGTCACCTAGTGCAG | 23500 fluorescence intensity (a.u.)
